Measured values published in PubChem BioAssay AID1508623 (National Center for Advancing Translational Sciences (NCATS), 2021).
Hit rate of the full screen: of about 48,000 compounds, about 450 (0.94%) were called active. Roughly 19% stayed inconclusive and do not appear here. Calls come from the whole dose curve; as a rule, active = well fitted inhibition curve with a large enough effect; inconclusive = small, poorly fitted or top-dose-only effect; inactive = no such curve, though single readings can be large or run the other way. Some of the results follow.

assay: Primary qHTS for Identification of Small Molecule Inhibitors of Huntingtin Promoter Activity; settings: HEK293 HTT promoter firefly luciferase reporter (activity 0% = vehicle and -100% = no light), 24 h; series mostly up to 57.5 µM; activity change, negative = inhibition: at the top concentration; note: nearly all actives have a fitted effect of over 50% in size
In short: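 HEK293 Fluc reporter, 2,500 cells/well, 24 h pre-culture; cpds up to 57.5 uM final, 24 h 37 degrees C; Dual-Glo, 10 min RT; normalized vehicle = 0%, zero RLU = -100%.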

Activity change, negative = inhibition, inactive:
CCOC(=O)C1CCCN(c2cc(C)nc3c(-c4ccccc4OC)c(C)nn23)C1 (stereo unspecified) -39.7%
CCc1c(C)sc(NC(=O)c2cc(-c3cccc(Cl)c3)on2)c1C#N -3.26%
COc1ccc(C)c2sc(N(Cc3cccnc3)C(=O)C3CCCCC3)nc12 -27.6%
CCCN(CCC)CCCNC(=O)C1CCN(S(=O)(=O)CC)CC1 -17.2%
CCCn1cc(S(=O)(=O)c2ccccc2)c(=O)c2cc(F)c(N3CCCC(C)C3)cc21 (stereo unspecified) -6.63%
COc1ccc(C)cc1NC(=O)c1c(C)oc2ncn(CC(C)C)c(=O)c12 -16.3%
Cc1ccc(CSCC(=O)N2CCN(c3ccccc3F)CC2)cc1 -20.2%
Cc1ccc(S(=O)(=O)CC(=O)Nc2sc3c(c2C#N)CCCC3)cc1 -14.4%
CCn1cc(CCC(=O)NCc2ccccc2OC)c2ccccc21 -25.4%
CC1=C(C(=O)Nc2ccccc2)C(c2cccnc2)n2nc(SCc3ccccc3Cl)nc2N1 (stereo unspecified) -4.26%
CCOC(=O)Cn1c(=O)n(C2CCCCC2)c2nc(-c3cccc(F)c3)nc(C(N)=O)c21 -12.6%
CC(C)c1c(C(=O)Nc2ccccc2)c(-c2ccccc2)c(-c2ccc(F)cc2)n1CC[C@H](O)C[C@@H](O)CC(=O)O 6%
Cc1ccc(S(=O)(=O)c2cc3cc(C(=O)O)ccc3oc2=O)cc1 -18.5%
CCOC(=O)c1c(NC(=O)COc2cc(C)ccc2C(C)C)sc(C)c1C -4.33%
CCOc1cccc(C(c2c(C)n(C)n(-c3ccccc3)c2=O)c2c(C)n(C)n(-c3ccccc3)c2=O)c1OC 0.497%
CCOc1ccc(NC(=O)c2nn(C)c3c2CS(=O)(=O)c2ccccc2-3)cc1 -12.3%
CCOc1ccccc1NC(=O)Cn1c(=O)n(-c2ccc(F)cc2)c(=O)c2sc3ccccc3c21 -4.98%
COc1ccc(CCNC(=O)CCCn2c(=O)c3ccccc3n(CC(=O)Nc3cc(Cl)ccc3C)c2=O)cc1OC -9.01%
Cc1ccccc1-c1noc(CCC(=O)Nc2cccc(C)c2C)n1 -13.9%
Cc1ccc2nc(-c3cc(NC(=O)/C=C/c4ccccc4)ccc3Cl)oc2c1 30%
COc1ccc(C(=O)Nc2ccc3nc(N4CCC(C)CC4)cc(C)c3c2)cc1 11.9%
COc1cc(Cl)c(C)cc1NC(=O)c1cn(C2CCCC2)c(=O)c2c1c1ccccc1n2C 5.14%
CCOc1ccc(-c2nnc(SCC(=O)NCCc3ccc(OC)c(OC)c3)nc2-c2ccc(OCC)cc2)cc1 0.662%
CCOCCCNC(=O)C(Cc1ccccc1)NS(=O)(=O)c1ccc2c(c1)c(=O)n(C)c(=O)n2C (stereo unspecified) -7.57%
COc1ccc(-c2nc(CSc3nncn4c3cc3occc34)c(C)o2)cc1 -18.7%
CCc1ccc(-c2[nH]c3c(c2-c2sc(C)c(C(=O)OC)c2O)c(=O)[nH]c(=O)n3C)cc1 -5.15%
